Some of the results follow.
Each sequence was assayed on PfSIP2 AP2 domain 1 (GST-tagged) (assay: gcPBM binding intensity (ln(normalized median fluorescence intensity)); higher = stronger DNA binding).
In short: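 Alexa488 anti-GST antibody, scanned at 488 nm, detected GST-tagged P. falciparum DNA-binding domains that had been expressed in E. coli and incubated for 1 h on an Agilent 4 × 180k array. The array carried primer-extended double-stranded 36-bp intergenic genomic probes and negative controls. Binding intensity is the highest Masliner-normalised natural-log median intensity across replicate spots of either orientation of each probe.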

Sequence	gcPBM binding intensity (ln)
TAATGCCATAATACGTGTACTTAATATATTAGAACA [XGTACX_site5809]	7.23
CTCAAATGTTATTGTAGTACCTAAAAAATATATTCT [XGTACX_site1970]	6.97
GTTGGTAGGCGGTACGGTACACGTAAAGTTTTTCTT [XGTACX_site7706]	6.64
ATAAATGACAAATTAACACACATATATTATATATAT [CACACA_site3899]	7.63
ACCATATAAATAAACACACACACACGGATATAAATA [CACACA_site7157]	7.21
AACTCATAAAATAATGGTACACAAAAAAAATAAATA [XGTACX_site7648]	6.99
CAAGGAACCAGACACACACACATAAATGTATTTATA [CACACA_site6491]	6.97
TTTTTTTTTTTCTTTTGTACGTATAAAATTATATAA [XGTACX_site2453]	7.01
TTAGGCAAGGCGGGGGGTACGTTTTTATATAATTAT [XGTACX_site8029]	9.53
TTAGATTTATAAGTGTGTACGTAAAATACTTAATAA [XGTACX_site8246]	7.03
TGTGTGTGCTTATTTTGTACATATTAGGTAAATATT [XGTACX_site6329]	7.21
TTTATGGAATAATCACGTACACACAAGAAAAAAAAA [XGTACX_site985]	7.06
TTTTTATCTAATCTAATATTATATTATACATATAAT [XGTACX_negctrl_site275]	6.92
ACTAAACGAATAAATTGTACAAAGAAATATATTCAT [XGTACX_site6766]	7.06
ACTACGTGGATTAGTTCAAGGGAACACGTCCTATAC [CACACA_negctrl_site1427]	6.78
CAACAAAAGTTATTTACACACAAAAGGCAAGGAAAT [CACACA_site7013]	7.24
AAAGGAAATAAAAACGCACACAGAAATAATATCTAT [CACACA_site457]	6.89
ATATTTCATTTTTGTACACACAACGTTGGAGGGTTT [CACACA_site3043]	7.18
TAAAAAATTACATATTGTACAGGCAAAATTACACAT [XGTACX_site1152]	6.93
TCATATAAATACACGTGTACATATATATATTACAGT [XGTACX_site1954]	7.4
AAAAAATATATATGCACACACAAAAAAACAAATTAA [CACACA_site1278]	7.91
AGTTTGCATATGGAAGTGCATTACCTTGAACATCAT	9.2

Sequence	gcPBM binding intensity (ln)
AATATAAAAAATAGTTGTACTATATTTAAATATGAC [XGTACX_site2937]	7.1
AAAAAAAAAAAATAGACACACATATTATATATATAT [CACACA_site1419]	8.89
TATTATTCTATACATTGTACATATTTTATAGTATGT [XGTACX_site73]	7.07
TTTAAAACCTTACATACACACAAATATGTAAATATA [CACACA_site6464]	6.98
TTCATATAACCTTATAGTACATAATTAAAAATATAA [XGTACX_site6328]	7.16
AAAAAAAAAAAAAAAACACACATATAGGTATAAATA [CACACA_site7528]	7.54
CACGCATATATACATACATGCATATATACATCCATG [TGCATGCA_site667]	6.99
ATATCTATAATAAATACACACATTTATATAGATAAA [CACACA_site7518]	7.02
AACAGCATTATTTCTTATTTTTTTTTTGATATATTT [GTGCAC_negctrl_site114]	6.75
AAACTTGACAGACACACACACACATATATAAAAAAA [CACACA_site757]	7.33
GTTATATTATTCATACGTACCTATATTTCTATTAAC [XGTACX_site3447]	7.46
TTTTCCTTATATTATGCATGCAGGGTTTGACATTAT [TGCATGCA_site826]	7.33
ATGTGTTGGGAAAAGGCATGCACTTTTTTTTTTTTT [TGCATGCA_site707]	9.57
TGATAACCTCACAAATGTACGTACGGGGCTAGCATT [XGTACX_site4157]	6.84
ACACATACTAAAATGTTGTGAAATATGATAATGTGA [CACACA_negctrl_site851]	6.94
TTATAATAATAGAACTTTATGTAGAAAAAAGGAAAA [XGTACX_negctrl_site116]	6.7
CACAGACACGGACACACACACACACCCACATATATA [CACACA_site4355]	7.4
ATATATTTTAAATATATTATTATTGCATTGTGAAAA [TGCATGCA_negctrl_site106]	7.07
TCTTAAAAAATAGGGACACGTAAATATAATATATAA [CACACA_negctrl_site554]	6.96
AAAAAAAAAAAAAAAACACACATATATATATATATA [CACACA_site2436]	10.1
TATATATATATATATAGTACATATTAATTAATTTAT [XGTACX_site8198]	9.76
TATAATGAGGATAATAGTACATATGAATACAAAAAA [XGTACX_site3665]	6.96

Sequence	gcPBM binding intensity (ln)
TACACAAGCAGACACACACACATATAGATTTATATA [CACACA_site6715]	7.32
GCCATAAAAATATATACACACATAAAAAAAAATTAT [CACACA_site1176]	7.09
TTAATATTGTATTTCACACATAATTTAATATACTCA [CACACA_site5678]	6.87
TTAAATAAGTAATTATGTACATATAATATTCTTTAT [XGTACX_site5280]	6.97
TATAGGAATATATGGTGTACCTATAAATCTGACATA [XGTACX_site8111]	6.84
AAAAATAAAAATTGCACACTAAAAAATTACGCACGA [CACACA_site3418]	7.6
ATTTATATATTTATACGTACTTATATATTGTTACAT [XGTACX_site6254]	7.16
TAGAAAATATAAAAATGTACGTAAATAAAATGTGCA [XGTACX_site3459]	7.52
TCTTAAGGAAAAGAGTGTACAGAAATTTTTATTAAC [XGTACX_site6139]	7.1
ATCCGAGTGTGAAATACACACATGATAATGTGAATG [CACACA_site919]	6.86
AATTATATTACAAACTGTACATATATAATTTGTCCA [XGTACX_site6009]	6.82
ACATGAAATGTTTAAAGTACATATATAAATTTTTTT [XGTACX_site4519]	6.79
ATATATAGATAATCAAGTACATAACAAGATATAAGA [XGTACX_site2186]	7.02
TACTGATCTTTCTAGGTGCGCTGCTACCATTATCGT [GTGCAC_site9538]	9.59
AAATGTGAAGTGAATACACACCTAATAAATATAACA [CACACA_site5727]	6.9
TATATTTAATTATTATGTACTTATAATTTTTGAAAG [XGTACX_site8548]	7.2
CTTTCCTATTTGACACGTACGAAATTTTACATAAAA [XGTACX_site6689]	7.36
AAATATATATACACATATATATATATATATATATAT [CACACA_negctrl_site1742]	9.46
TATGAAATATCGTGCACACACGAATAATATAAGAAT [CACACA_site4842]	8.91
AAAATAAAAAATATAACACACAATAAATATTTATAT [CACACA_site6986]	7.05
TATATATATAATATTACACACATATATTTATATTTT [CACACA_site3460]	7.99
ATTTATACATGCTAATGTACTTATTTCACCTATATC [XGTACX_site3120]	7.02

Sequence	gcPBM binding intensity (ln)
TATGGTATATACAACACACACACATATGTATAAATA [CACACA_site6562]	7.22
CAAGTATTAATTATGTGTACATATATATATATATAT [XGTACX_site5311]	9.57
TATGTATTTATCCACTTACATTTTTACTTTTCCATT [CACACA_negctrl_site1141]	6.8
TGTTTGCTTATGTGTTAAATATATATATATATATAT [TGCATGCA_negctrl_site218]	9.44
ATTTTAGGAAAAAAAAGTACATATAATTTTTTATAT [XGTACX_site6954]	6.93
CGAACACAAACACAAACACACATCAGATATAAATAT [CACACA_site6736]	6.99
TTTTTTTTGATATATACACACAATAAATAAATATAA [CACACA_site7400]	7.18
ATTTATTATTATATCACACATAATATATTAAATGAT [CACACA_site5821]	6.95
TATGGAGAAATAAATAGTACGTATTTTATTTAAAAA [XGTACX_site3129]	6.88
AAAAATATAAAAATAGCACACATATATACATATATA [CACACA_site7901]	6.95
ATGTTCGATGATAAATGTACAAAAATAATGGAAGTA [XGTACX_site1916]	7.38
TATAAAAATATTGAAAGTACTTATTAAAATATTATT [XGTACX_site3701]	6.96
TTTCCTAGCACATGCACACAAAAAAAAAAAAAAAAA [CACACA_site1404]	7.49
CTTGCAAAAAGTATATGTACATATATATATATATAT [XGTACX_site5792]	9.15
TATTCCTAATTGACAACACACACAACAAAAAAGGGA [CACACA_site8350]	7.44
CTATAATATGGTATTACACACTGTTATAAGTATGGC [CACACA_site7068]	6.88
ATATATTTTTTGAATACACACATATTATCTGTAATA [CACACA_site4826]	7.06
TATAAATAGAGACACACACACATATAAATAAATATT [CACACA_site7854]	7.04
TATATTTCTTCTATAACATGCAGATATATGAAAATA [TGCATGCA_site971]	7.11
TAATGAAATATTATGTGTACTTAAAAATTATTAAAT [XGTACX_site5261]	7.13
ATTATTAACATATATATACACACGAAAAAATTATAT [CACACA_site625]	7.4
AGAATTATTTTATGTTTGCACTTTTTTTTTCTATAA [GTGCAC_site9876]	8.35

Reference: the supplement of paper PMC11417369
